According to PMC4336329 (PLoS ONE, 2015):
Out of some 310,000 compounds screened, about 14,000 (4.5%) showed an effect of 50% or more. Effects have a minus sign here. This is one part of the list.

molecular target: human ether-à-go-go-related gene (hERG) potassium channel (human, UniProt Q12809); experiment: primary screen, population patch clamp on CHO cells stably expressing hERG
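Also: peak tail current of the secondary pulse compared with the same well before compound.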

Chain of human ether-à-go-go-related gene (hERG) potassium channel (Q12809 whole entry, looked up): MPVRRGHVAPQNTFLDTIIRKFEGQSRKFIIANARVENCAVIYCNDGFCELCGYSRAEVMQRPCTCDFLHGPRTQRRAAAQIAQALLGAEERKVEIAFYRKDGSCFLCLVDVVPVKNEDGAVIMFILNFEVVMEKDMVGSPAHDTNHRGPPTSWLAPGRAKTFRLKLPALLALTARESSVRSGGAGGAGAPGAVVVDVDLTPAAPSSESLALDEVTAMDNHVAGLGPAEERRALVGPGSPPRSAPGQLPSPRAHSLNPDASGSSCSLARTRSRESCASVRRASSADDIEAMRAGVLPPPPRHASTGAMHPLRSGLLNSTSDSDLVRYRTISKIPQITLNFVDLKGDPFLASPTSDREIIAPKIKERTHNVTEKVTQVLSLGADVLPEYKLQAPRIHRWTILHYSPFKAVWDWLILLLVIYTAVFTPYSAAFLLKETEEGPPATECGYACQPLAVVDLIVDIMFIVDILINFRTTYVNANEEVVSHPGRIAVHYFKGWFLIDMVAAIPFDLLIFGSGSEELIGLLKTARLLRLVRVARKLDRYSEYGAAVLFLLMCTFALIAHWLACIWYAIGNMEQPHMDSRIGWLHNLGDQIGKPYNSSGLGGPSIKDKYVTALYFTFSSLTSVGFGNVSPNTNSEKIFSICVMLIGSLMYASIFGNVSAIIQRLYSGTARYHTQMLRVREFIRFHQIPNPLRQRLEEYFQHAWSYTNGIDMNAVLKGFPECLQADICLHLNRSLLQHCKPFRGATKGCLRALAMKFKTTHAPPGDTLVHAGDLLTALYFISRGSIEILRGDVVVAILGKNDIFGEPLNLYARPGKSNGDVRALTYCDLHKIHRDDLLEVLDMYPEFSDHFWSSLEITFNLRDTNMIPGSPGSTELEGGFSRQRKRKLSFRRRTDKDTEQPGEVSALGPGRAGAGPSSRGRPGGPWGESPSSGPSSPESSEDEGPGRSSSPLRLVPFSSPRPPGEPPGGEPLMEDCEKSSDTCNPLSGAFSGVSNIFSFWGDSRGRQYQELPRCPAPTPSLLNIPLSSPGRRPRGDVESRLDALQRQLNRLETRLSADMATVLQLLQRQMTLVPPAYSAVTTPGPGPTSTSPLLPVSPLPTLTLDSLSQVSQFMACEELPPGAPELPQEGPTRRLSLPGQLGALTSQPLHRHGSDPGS

Row | SMILES | hERG current change (%, negative = inhibition) at 10uM [%]
1 | Cc1cccc(C)c1N=Nc1c(C)cc(O)cc1C | 10.4
2 | CNS(=O)(=O)c1cc(OC)c(OC)cc1CC(=O)OC | 23.7
3 | COc1ccc(S(=O)(=O)NCc2ccc3c(c2)cc(C)n3C)cc1 | -4.72
4 | O=C1CN(C(=O)CSc2nc3ccccc3n2CCc2ccccc2)c2ccccc2N1 | -20.6
5 | Cc1ccc(CN2CCC(Oc3cccc(C(=O)NCc4cccnc4)c3)CC2)o1 | -24.7
6 | CCOC(=O)Cc1csc(NC(=O)COc2ccc(C)c(C)c2)n1 | 3.57
7 | Cc1ccc(-c2nc(=S)c3c(n2CCN2CCOCC2)CC(C)(C)OC3)cc1 | -0.783
8 | Cc1ccc(S(=O)(=O)N2CC(C(=O)O)=CC[C@H]2c2ccc(Cl)cc2)cc1 | 18.2
9 | Cc1nn(C(C)(C)C)c(N)c1-c1ccccc1 | 10.2
10 | Cc1[nH]c2ccccc2c1/C=N/NC(=O)c1cccc(S(=O)(=O)Nc2cccc(C(F)(F)F)c2)c1 | 18.6
11 | Cc1cc(C)cc(C(=O)N(CCc2ccccc2)C2=CC3CCC(C2)N3C)c1.Cl (stereo not drawn) | -60.7
12 | COc1ccc(OC(C)C(=O)NC(C)c2ccccc2)cc1 (stereo not drawn) | 27.7
13 | Cl.O=C(O)c1ccoc1CN1CCCCC1 | -3.81
14 | CC1=NN(c2ccc(Cl)c(C(=O)O)c2)C(=O)/C1=C/c1ccc(-c2ccccc2[N+](=O)[O-])o1 | 5.1
15 | Cc1ccccc1C(=O)NC1CCN(CC(=O)Nc2ccc(Br)cc2)CC1 | -39.3
16 | CCOC(=O)/C(N=Nc1sc(C(=O)OC)c(C)c1C(=O)OCC)=C(\O)CCl | 2.33
17 | COc1cccc(CN(C)C(=O)c2cc(S(=O)(=O)NCc3ccccc3)ccc2C)c1OC | -16.7
18 | NS(=O)(=O)c1ccc(CCNC(=O)c2cccc(OC(F)F)c2)cc1 | -24.5
19 | Cc1cccc(C)c1NC(=O)C1(N(Cc2ccco2)C(=O)CC2NC(=O)NC2=O)CCCC1 (stereo not drawn) | 8.55
20 | CCOC(=O)c1c(C)[nH]c(C(C)=O)c1C | 9.55
21 | CN(C(=O)CSc1nnnn1C)C1(C#N)CCCCC1 | 10.7
22 | O=C(COC(=O)c1nc(Cl)ccc1Cl)NNC(=O)c1cccs1 | 9.68
23 | COc1ccc(OC)c(/C=N/NC(=O)C(=O)N2CCCC2)c1 | -6.06
24 | CCc1ccccc1NC(=O)c1noc(C(C)C)c1[N+](=O)[O-] | -0.896
25 | OCC1(CCCc2ccccc2)CCN(Cc2cc(F)ccc2F)CC1 | -69.5
26 | CCCC(=O)OC1CCS(=O)(=O)c2sccc21 (stereo not drawn) | 10.5
27 | CCn1c(SCC(=O)Nc2cc(C)on2)nnc1-c1ccc(S(=O)(=O)N2CCCC2)cc1 | -1.7

Row | SMILES | hERG current change (%, negative = inhibition) at 10uM [%]
28 | COc1ccc(-c2[nH]ncc2CN2CCC(C(=O)c3ccc(F)cc3)CC2)cc1 | -76.2
29 | O=C(CCC(=O)Nc1cccc([N+](=O)[O-])c1)N/N=C/c1cccs1 | -4.69
30 | C/C(CC(=O)Nc1cc(C)ccn1)=N\NC(=O)c1ccc(C(C)(C)C)cc1 | 12.9
31 | CCOC(=O)c1[nH]c(C)c(C(=O)/C=C/c2ccc(C(=O)O)cc2)c1C | 19.3
32 | Nc1cc(=O)[nH]c(SCc2cccc(Cl)c2)n1 | 5.62
33 | C=CCNc1nc2c(c(=O)n(C)c(=O)n2C)n1CC(=C)C | -5.68
34 | NC(=O)NC(=O)C(c1ccccc1)N1CCN(S(=O)(=O)Cc2ccccc2)CC1 (stereo not drawn) | -18.9
35 | CCOC(=O)C1=C(C)Nc2ccccc2N=C1NC(=O)c1cccc(S(=O)(=O)NCc2ccccc2)c1 | -19.4
36 | O=C(Nc1nc2c(s1)CCCC2)c1ccc(S(=O)(=O)N2CCCc3ccccc32)cc1 | 20.9
37 | COc1ccc(S(=O)(=O)N(C)CC(=O)NCCc2ccccc2)cc1OC | -5.73
38 | CCN1CCN(C(=O)C2=C(C(=O)O)CCCC2)CC1 | 6.09
39 | CC(=O)Nc1ccc2c(c1)c1ccccc1n2C(C)=O | 0.357
40 | CC(C(N)=O)N1C(=O)C2C3C=CC(C3)C2C1=O (stereo not drawn) | 13.3
41 | Cc1ccnc(N2CCC(C(=O)NNC(=O)COc3cccc4ccccc34)CC2)n1 | 11.2
42 | Cc1csc(Sc2nc3c(c(=O)[nH]c(=O)n3C)n2CCCc2ccccc2)n1 | 12.2
43 | Cc1ccc(S(=O)(=O)N2[C@@H](c3ccccc3)C(C(=O)O)=CC[C@H]2c2cccc(Cl)c2)cc1 | 10.6
44 | O=C1C[C@@H](c2ccc(O[C@@H]3O[C@H](CO)[C@@H](O)[C@H](O)[C@H]3O)cc2)Oc2cc(O)ccc21 | 7.57
45 | Cc1ccc(N2C(=O)CC2(C#N)c2ccc(OCc3ccccc3)cc2)cc1 (stereo not drawn) | -29.4
46 | O=C(Cn1nc(-c2cccc([N+](=O)[O-])c2)c2ccccc2c1=O)Nc1cccnc1 | -13.8
47 | CCc1c(C)nc(Nc2nc(C)c3cc(OC)ccc3n2)[nH]c1=O | 3.37
48 | CCOc1ccc(-n2c(Cc3cc(=O)[nH]c(=O)[nH]3)nnc2SCC(=O)NC2CCCC2)cc1 | 11.9
49 | Cc1nnsc1C(=O)N1CCCC(Nc2ccc(F)c(F)c2)C1 (stereo not drawn) | 0.644
50 | O=C(Cn1cc(C(=O)c2ccco2)c2ccccc21)NC1CCCCC1 | -1.45
51 | COc1ccccc1CNC(=O)c1ccc(S(=O)(=O)N(C)C)cc1 | 0.905
52 | Cc1ccc(C)c(NC(=S)Nc2ncccc2C)c1 | -8.78
53 | CCCCn1c(=O)[nH]c(=O)c2c1nc(-c1ccc(-c3ccccc3)cc1)n2C | 20.2
54 | CCc1nc(CN2CCN(Cc3ccc(F)c(F)c3)C(CCO)C2)c(C)[nH]1 (stereo not drawn) | 14.2
